From PubChem BioAssay AID504333 (National Center for Advancing Translational Sciences (NCATS), 2011)
Hit rate of the full screen: of about 360,000 compounds, about 16,000 (4.4%) were called active. The inconclusive results got no clear call from the source; some entries with a clear call stand among them for comparison. Calls come from the whole dose curve; as a rule, active = well fitted inhibition curve with a large enough effect; inconclusive = small, poorly fitted or top-dose-only effect; inactive = no such curve, though single readings can be large or run the other way. Potencies of inconclusive entries are doubtful fits and often do not repeat.

Target: Bromodomain adjacent to zinc finger domain protein 2B (Homo sapiens) (UniProt Q9UIF8)
Test: qHTS Assay for Inhibitors of BAZ2B; note: nearly all actives have a fitted effect of over 60% in size
Settings: AlphaScreen BAZ2B-H3K14Ac peptide displacement; activity change, negative = inhibition: at 114 µM (top of the series)
Procedure, shortened: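 Multi-concentration screen (max 110 uM) measuring displacement of acetylated histone H3 peptide from BAZ2B by AlphaScreen, using 50 nM protein, 50 nM peptide and 10 ug/mL streptavidin donor plus Ni-chelate acceptor beads.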
% is set by controls: 0 for no effect and ±100 for the full control effect; potency is the fitted concentration of half-maximal effect; tags give direction and shape of the fitted curve.

Chain of UniProt Q9UIF8 (Q9UIF8 whole entry, looked up, the tested form may be a part): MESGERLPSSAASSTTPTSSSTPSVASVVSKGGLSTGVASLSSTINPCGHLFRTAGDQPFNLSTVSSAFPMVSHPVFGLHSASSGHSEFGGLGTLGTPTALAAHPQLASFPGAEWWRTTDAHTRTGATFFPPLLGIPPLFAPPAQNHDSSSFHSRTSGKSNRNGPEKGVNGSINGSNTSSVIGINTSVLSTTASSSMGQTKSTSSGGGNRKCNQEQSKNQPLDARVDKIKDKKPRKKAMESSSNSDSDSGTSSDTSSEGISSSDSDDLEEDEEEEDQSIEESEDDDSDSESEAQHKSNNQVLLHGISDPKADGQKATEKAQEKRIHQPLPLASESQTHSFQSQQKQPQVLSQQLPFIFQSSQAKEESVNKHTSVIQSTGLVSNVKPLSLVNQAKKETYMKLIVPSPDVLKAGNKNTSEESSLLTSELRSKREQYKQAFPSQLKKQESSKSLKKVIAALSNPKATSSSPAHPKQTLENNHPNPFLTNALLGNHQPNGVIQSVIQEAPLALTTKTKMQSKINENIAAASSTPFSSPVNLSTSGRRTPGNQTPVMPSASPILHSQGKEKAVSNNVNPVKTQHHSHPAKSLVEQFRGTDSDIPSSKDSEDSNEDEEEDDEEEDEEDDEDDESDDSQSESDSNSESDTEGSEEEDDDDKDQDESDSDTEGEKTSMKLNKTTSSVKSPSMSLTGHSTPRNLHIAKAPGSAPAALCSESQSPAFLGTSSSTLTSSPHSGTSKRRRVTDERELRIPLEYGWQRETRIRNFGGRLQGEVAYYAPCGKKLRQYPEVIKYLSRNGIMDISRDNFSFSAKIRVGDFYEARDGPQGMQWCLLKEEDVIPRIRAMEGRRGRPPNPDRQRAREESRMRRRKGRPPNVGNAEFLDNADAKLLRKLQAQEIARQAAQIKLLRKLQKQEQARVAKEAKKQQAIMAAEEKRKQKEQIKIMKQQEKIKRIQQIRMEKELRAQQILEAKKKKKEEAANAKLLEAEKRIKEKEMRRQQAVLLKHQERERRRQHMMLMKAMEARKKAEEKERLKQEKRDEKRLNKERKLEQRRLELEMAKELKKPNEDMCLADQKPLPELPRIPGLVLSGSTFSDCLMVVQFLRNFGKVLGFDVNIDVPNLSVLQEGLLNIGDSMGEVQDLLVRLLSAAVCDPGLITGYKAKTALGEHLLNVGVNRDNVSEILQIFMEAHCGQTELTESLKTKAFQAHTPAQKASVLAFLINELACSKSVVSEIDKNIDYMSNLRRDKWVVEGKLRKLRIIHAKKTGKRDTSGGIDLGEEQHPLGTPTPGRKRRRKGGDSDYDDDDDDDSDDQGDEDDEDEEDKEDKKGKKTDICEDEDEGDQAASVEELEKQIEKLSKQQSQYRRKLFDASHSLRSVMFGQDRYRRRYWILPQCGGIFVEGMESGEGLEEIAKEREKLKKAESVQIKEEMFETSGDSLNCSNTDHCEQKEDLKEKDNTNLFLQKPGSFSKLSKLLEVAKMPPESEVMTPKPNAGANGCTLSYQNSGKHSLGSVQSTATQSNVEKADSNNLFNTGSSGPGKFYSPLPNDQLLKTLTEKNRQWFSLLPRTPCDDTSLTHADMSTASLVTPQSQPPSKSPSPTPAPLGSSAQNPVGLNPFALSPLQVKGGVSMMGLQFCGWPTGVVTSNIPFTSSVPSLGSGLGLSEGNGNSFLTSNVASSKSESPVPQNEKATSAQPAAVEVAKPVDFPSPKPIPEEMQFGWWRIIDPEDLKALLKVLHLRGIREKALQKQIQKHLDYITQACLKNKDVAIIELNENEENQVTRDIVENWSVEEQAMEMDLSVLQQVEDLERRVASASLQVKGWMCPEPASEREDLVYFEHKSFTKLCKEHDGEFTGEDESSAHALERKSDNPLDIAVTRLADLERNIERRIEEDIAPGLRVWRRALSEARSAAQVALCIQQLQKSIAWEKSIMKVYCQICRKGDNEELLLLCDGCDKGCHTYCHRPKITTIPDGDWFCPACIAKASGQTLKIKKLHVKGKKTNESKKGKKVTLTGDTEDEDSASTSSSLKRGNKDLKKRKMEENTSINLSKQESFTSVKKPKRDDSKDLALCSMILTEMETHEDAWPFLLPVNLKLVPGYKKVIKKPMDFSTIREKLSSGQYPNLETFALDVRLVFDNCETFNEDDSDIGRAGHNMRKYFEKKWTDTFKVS

Row | Structure (SMILES) | Potency | activity change, negative = inhibition
1 | O=c1cc(C(F)(F)F)nc(-c2cccnc2)[nH]1 | inconclusive: 100 µM [inhibitor, single point] | 
2 | Cc1ccccc1OCCSc1nnc(-c2ccc([N+](=O)[O-])cc2)o1 | inconclusive: 5.62 µM [inhibitor, full curve, poor fit] | 
3 | CC1=C/C(=C(\c2cc(C)c(O)c(Br)c2)c2ccccc2S(=O)(=O)O)C=C(Br)C1=O | active: 20 µM | 
4 | Oc1cccc(-c2nc(-c3cccs3)c(-c3cccs3)[nH]2)c1 | active: 39.8 µM | 
5 | CC(=O)C(Sc1ccc2nnc(-c3ccc(F)cc3)n2n1)C(C)=O | inconclusive: 89.1 µM [inhibitor, single point] | 
6 | COc1cccc(C2=NOC(C(=O)N3CCc4ccccc4C3)C2)c1 (stereo unspecified) |  | inactive: 10.9%
7 | Cc1cc(C)nc(SCC(=O)N/N=C/C=C/c2ccccc2)n1 | inconclusive: 89.1 µM [inhibitor, single point] | 
8 | Cc1c(F)cccc1NS(=O)(=O)c1ccc2c(c1)c(=O)n(C)c(=O)n2C |  | inactive: -3.52%
9 | O=C(c1cc(-c2cccnc2)nc2ccccc12)N1CCCc2ccccc21 | inconclusive: 89.1 µM [inhibitor, single point] | 
10 | Cc1nc(N2CCN(S(=O)(=O)c3ccccc3C#N)CC2)c2c(-c3ccccc3)csc2n1 |  | inactive: 6.23%
11 | c1cc(CNc2ccc(N3CCOCC3)cc2)ccn1 | inconclusive: 28.2 µM [inhibitor, single point] | 
12 | Cc1ccc(-n2nc(C)c3c2OC(N)=C(C#N)C3c2ccccc2F)cc1 (stereo unspecified) | inconclusive: 89.1 µM [inhibitor, single point] | 
13 | Cc1nc(C)c(C(=O)Nc2ncc([N+](=O)[O-])s2)o1 | inconclusive: 50.1 µM [inhibitor, partial curve] | 
14 | COc1cc2c(cc1OC)C(C)N(CC(=O)Nc1ccc(C)c(S(=O)(=O)N3CCOCC3)c1)CC2 (stereo unspecified) | inconclusive: 70.8 µM [inhibitor, single point] | 
15 | COc1ccccc1N1CCN(Cc2cc3c(cc2O)OCO3)CC1 | inconclusive: 50.1 µM [inhibitor, partial curve] | 
16 | CCOc1ccccc1N(CC(=O)NCc1ccccc1)C(=O)CCC(=O)Nc1cc(C)ccn1 | inconclusive: 56.2 µM [inhibitor, partial curve] | 
17 | COc1ccc(CCN2C(=O)CC(NNC(=O)c3ccccc3Br)C2=O)cc1OC (stereo unspecified) |  | inactive: 8.83%
18 | Cc1cc(C=O)c(C)n1-c1ccc(N2CCCCC2)c([N+](=O)[O-])c1 | active: 39.8 µM | 
19 | O=C(Cn1nnc(-c2cccs2)n1)NNC(=O)c1ccccc1Cl |  | inactive: -18.9%
20 | CN(C)CCNC(=O)c1scc2c1CCCC2 | inconclusive: 89.1 µM [inhibitor, single point] | 
21 | COc1ccc(/C=C/C(=O)OCC(=O)Nc2ccc(Cl)cn2)cc1 |  | inactive: -18.2%
22 | CN(C)c1nc(-c2ccccn2)nnc1-c1ccccc1 | active: 0.794 µM | 
23 | S=C(S)N1CCCC1 |  | inactive: 12.4%
24 | CCOc1ccc(Nc2nc(N)nc(CN(C)C3CCCCC3)n2)cc1 | active: 28.2 µM | 

Row | Structure (SMILES) | Potency | activity change, negative = inhibition
25 | FC(F)Oc1ccc(-n2cc(-c3ccc(Cl)cc3)[n+]3c2CCCCC3)cc1 | inconclusive: 89.1 µM [inhibitor, single point] | 
26 | O=[N+]([O-])c1ccc(Nc2ccccc2)c2nonc12 | active: 39.8 µM | 
27 | COc1cccc(/C=N/Nc2ncnc(Cl)c2N)c1O | active: 7.94 µM | 
28 | Cc1cccc(NC(=O)[C@H](Cc2ccccc2)NC(=O)[C@@H]2Cc3ccccc3CN2)c1 | inconclusive: 89.1 µM [inhibitor, partial curve] | 
29 | Cc1cc(=O)[nH]c(N=N/C(=N/Nc2ccccc2C)c2ccccc2)n1 | inconclusive: 8.91 µM [inhibitor, full curve, poor fit] | 
30 | O=C(CCCc1c[nH]c2ccccc12)NCC1COc2ccccc2O1 (stereo unspecified) | inconclusive: 70.8 µM [inhibitor, single point] | 
31 | CCCC12CN3CC(CCC)(CN(C1)C3c1ccc(OCc3ccccc3)cc1)C2=O (stereo unspecified) |  | inactive: -1.5%
32 | CN(Cc1ccccc1)Cc1c(F)cccc1F | active: 56.2 µM | 
33 | CCCOC(=O)c1ccc(Oc2cn[nH]c2-c2ccc(O)cc2O)cc1 | inconclusive: 22.4 µM [inhibitor, full curve, poor fit] | 
34 | C=CCN1C(=O)C(O)(CC(=O)c2ccc(-n3cccc3)cc2)c2ccccc21 (stereo unspecified) | active: 50.1 µM | 
35 | COc1ccccc1-n1c(-c2ccc(F)cc2)coc1=O |  | inactive: -22.5%
36 | CCOc1cc(N2CCOCC2)c(OCC)cc1NC(=O)c1c(-c2ccccc2)noc1C | active: 44.7 µM | 
37 | O=C1/C(=C/c2ccc(F)cc2)SC(=S)N1NS(=O)(=O)c1ccccc1 | inconclusive: 70.8 µM [inhibitor, single point] | 
38 | COc1cccc(N2CCN(C(=O)c3ccc(CS(=O)c4ccccc4Cl)o3)CC2)c1 (stereo unspecified) | inconclusive: 50.1 µM [inhibitor, partial curve] | 
39 | FC(F)(F)COc1ccc(-c2nnc(SCc3c(Cl)cccc3Cl)o2)cn1 | inconclusive: 89.1 µM [inhibitor, single point] | 
40 | CCOc1ccc(NC(=O)c2ccc(NC(=O)c3ccc(CN4CCOCC4)cc3)cc2)cc1 |  | inactive: -13.7%
41 | Cc1cc(SCC(=O)OCC(=O)N2CCN(C(=O)c3ccco3)CC2)c(C)cc1Br | inconclusive: 79.4 µM [inhibitor, single point] | 
42 | N=c1n(CCN2CCCCC2)c2ccccc2n1CC(=O)c1cccc([N+](=O)[O-])c1 | inconclusive: 39.8 µM [inhibitor, partial curve] | 
43 | CN(C)c1ccc(C(CNC(=O)c2ccc(C(C)(C)C)cc2)N2CCCC2)cc1 (stereo unspecified) | active: 28.2 µM | 
44 | Cc1cccc(NC(=O)C2CCCN2S(=O)(=O)c2cccc3nsnc23)c1C (stereo unspecified) |  | inactive: -17.8%
45 | Cc1c(N=C2N=C(NC(=O)c3cccs3)c3ccccc32)c(=O)n(-c2ccccc2)n1C | inconclusive: 28.2 µM [inhibitor, full curve] | 
46 | O=C1C2C3C=CC(C2C(=O)N1c1cccc(O)c1)C1C2C(=O)N(c4cccc(O)c4)C(=O)C2C31 (stereo unspecified) | inconclusive: 79.4 µM [inhibitor, single point] | 
47 | Nc1nc(NC(=O)c2ccccc2)nn1-c1ccccc1 | inconclusive: 89.1 µM [inhibitor, single point] | 
48 | COc1ccc(N2CCN(C(=O)c3ccc(N4C(=O)NC5CC4(C)Oc4ccccc45)cc3)CC2)cc1 (stereo unspecified) | inconclusive: 79.4 µM [inhibitor, single point] | 

Row | Structure (SMILES) | Potency | activity change, negative = inhibition
49 | CCN(Cc1ccccc1)C(=O)CCS(=O)(=O)c1ccc2c(c1)NC(=O)CO2 |  | inactive: -15.9%
50 | OCCN(CCO)c1nc(N2CCCCC2)c2nc(N(CCO)CCO)nc(N3CCCCC3)c2n1 | inconclusive: 79.4 µM [inhibitor, single point] | 
51 | COc1ccccc1/C=C/C=N/n1c(-c2ccc(C)cc2)n[nH]c1=S |  | inactive: -27.6%
52 | COC(=O)c1cccc(NC(=O)CCN2C(=O)C3CC=CCC3C2=O)c1 (stereo unspecified) |  | inactive: -5.83%
53 | COc1ccc(/C=C/C(=O)c2ccc(O)cc2)cc1COc1ccc(F)cc1 | inconclusive: 39.8 µM [inhibitor, partial curve] | 
54 | Cc1cc(C(=O)CN2C(=O)c3ccccc3S2(=O)=O)c(C)n1C(C)C | inconclusive: 79.4 µM [inhibitor, single point] | 
55 | COc1ccc(/C=C2\SC(=N)N(c3ccc(F)cc3)C2=O)cc1OC |  | inactive: -23.3%
56 | CCOC(=O)c1cc2c(ccn2C)n1CC(=O)N1CCN(c2cccc(C(F)(F)F)c2)CC1 | inconclusive: 89.1 µM [inhibitor, single point] | 
57 | O=c1cc(CN2CCN(c3ccc(F)cc3)CC2)c2cc3c(cc2o1)CCCC3 | inconclusive: 79.4 µM [inhibitor, single point] | 
58 | CC1(C)CC(=O)C=C(c2ccc(F)cc2OCc2ccccc2)C1 |  | inactive: 42.7%
59 | CC(CCCCC(=O)Nc1ccc(C(F)(F)F)cc1)NCCc1cnc[nH]1 (stereo unspecified) | inconclusive: 79.4 µM [inhibitor, single point] | 
60 | Cc1ccc(C2CC(=O)n3nc(-c4ccc(F)cc4)nc3S2)cc1 (stereo unspecified) |  | inactive: 1.8%
61 | CCCC(C(=O)NCc1ccco1)N(C(=O)CNS(=O)(=O)c1ccc(Cl)cc1)C1CCCC1 (stereo unspecified) | inconclusive: 89.1 µM [inhibitor, single point] | 
62 | O=c1[nH][nH]cc1C=Nc1ccc(Oc2ccccc2)cc1 | inconclusive: 50.1 µM [inhibitor, partial curve] | 
63 | O=c1[nH]c2ccc(NCc3ccc(F)cc3)cc2[nH]1 | inconclusive: 50.1 µM [inhibitor, partial curve] | 
64 | O=C(c1ccc(Br)cc1)c1cc([N+](=O)[O-])ccc1N1CCOCC1 | inconclusive: 22.4 µM [inhibitor, full curve] | 
65 | CC(=O)Nc1ccc(NC(=O)CSc2nnc(NC(=O)C3CC(=O)N(c4ccccc4)C3)s2)cc1 (stereo unspecified) |  | inactive: -16.9%
66 | CCC1CN(C(=O)N2CCC(C(=O)NCCCc3ccccc3)CC2)c2cc(C)ccc2O1 (stereo unspecified) | inconclusive: 17.8 µM [inhibitor, full curve, poor fit] | 
67 | O=C(O)c1ccccc1-c1ccc(/C=C2\SC(=O)N(c3ccccc3)C2=O)o1 | inconclusive: 89.1 µM [inhibitor, single point] | 
68 | COC(=O)c1ccc(NC(=O)c2cc3sccc3n2C)cc1 | inconclusive: 22.4 µM [inhibitor, partial curve] | 
69 | O=[N+]([O-])c1ccc(-c2c(-c3ccccc3)ncc3ccc(F)cc23)cc1 | inconclusive: 31.6 µM [inhibitor, full curve] | 
70 | CCC(C(=O)NCCCN1CCOCC1)n1c2ccccc2c2nc(=O)cc(C)n21 (stereo unspecified) |  | inactive: -4.01%
71 | Cc1cc2nn(-c3ccccc3)nc2cc1NC(=O)Cc1ccc(Cl)cc1 |  | inactive: -20.2%
